These results are taken from paper PMC10632493.

Sequences of proteins named here, by UniProt entry; tags and fusion partners are left off.
UniProt O95271: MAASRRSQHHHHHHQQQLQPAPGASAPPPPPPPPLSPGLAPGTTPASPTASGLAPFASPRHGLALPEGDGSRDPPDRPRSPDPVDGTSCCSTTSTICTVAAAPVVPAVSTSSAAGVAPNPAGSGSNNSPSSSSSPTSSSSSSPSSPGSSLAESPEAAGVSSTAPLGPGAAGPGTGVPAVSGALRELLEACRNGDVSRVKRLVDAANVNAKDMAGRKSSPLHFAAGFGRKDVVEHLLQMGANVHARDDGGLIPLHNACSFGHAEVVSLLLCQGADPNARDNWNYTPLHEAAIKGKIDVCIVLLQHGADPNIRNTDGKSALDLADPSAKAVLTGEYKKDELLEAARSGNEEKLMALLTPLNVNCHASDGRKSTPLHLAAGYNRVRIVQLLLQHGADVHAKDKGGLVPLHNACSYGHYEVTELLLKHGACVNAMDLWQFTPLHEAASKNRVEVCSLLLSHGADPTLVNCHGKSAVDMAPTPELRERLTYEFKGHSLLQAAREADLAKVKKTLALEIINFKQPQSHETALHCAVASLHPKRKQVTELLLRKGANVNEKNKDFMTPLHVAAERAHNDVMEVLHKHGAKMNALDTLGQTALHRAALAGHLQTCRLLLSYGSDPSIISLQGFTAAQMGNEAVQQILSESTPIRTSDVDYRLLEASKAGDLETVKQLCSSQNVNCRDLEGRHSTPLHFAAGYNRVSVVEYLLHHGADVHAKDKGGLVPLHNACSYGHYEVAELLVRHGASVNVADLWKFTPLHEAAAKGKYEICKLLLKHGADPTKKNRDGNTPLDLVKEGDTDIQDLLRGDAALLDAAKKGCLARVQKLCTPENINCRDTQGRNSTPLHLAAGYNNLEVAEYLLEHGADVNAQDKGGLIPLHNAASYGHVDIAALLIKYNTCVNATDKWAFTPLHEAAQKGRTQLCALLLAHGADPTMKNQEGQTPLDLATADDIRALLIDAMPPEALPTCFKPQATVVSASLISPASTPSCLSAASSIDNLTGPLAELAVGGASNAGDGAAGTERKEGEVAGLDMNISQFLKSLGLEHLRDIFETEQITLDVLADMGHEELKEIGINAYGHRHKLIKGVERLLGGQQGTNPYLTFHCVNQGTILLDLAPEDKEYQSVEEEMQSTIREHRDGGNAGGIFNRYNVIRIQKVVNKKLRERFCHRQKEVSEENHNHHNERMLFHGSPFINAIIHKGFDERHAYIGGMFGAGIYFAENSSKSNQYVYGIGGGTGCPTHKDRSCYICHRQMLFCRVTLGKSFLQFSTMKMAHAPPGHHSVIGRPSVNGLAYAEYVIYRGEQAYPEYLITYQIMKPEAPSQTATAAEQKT

No constants are given. Whether binding was seen depends on the method and setting. Binding seen in cells or lysates may run through a third protein. Some entries that bind do so weakly or less than the wild type. For some assays here: Sequences can lack the tags named with a protein.

Assay [1] addresses T1, Flag-tagged RNF125 (UniProt Q96EQ8).
T1 sequence: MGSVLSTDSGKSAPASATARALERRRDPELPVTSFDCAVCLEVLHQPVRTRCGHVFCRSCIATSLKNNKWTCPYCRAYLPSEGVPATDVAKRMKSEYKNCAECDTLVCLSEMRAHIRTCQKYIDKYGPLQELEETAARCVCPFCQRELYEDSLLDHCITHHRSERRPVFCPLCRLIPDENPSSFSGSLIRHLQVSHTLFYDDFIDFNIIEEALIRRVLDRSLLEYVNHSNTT
The experiment in a line: co-IP; as a3, cells treated with tankyrase inhibitor #8 (TNKSi, 10 µM): TNKS1/2 DKO HEK293T cells cotransfected with TNKS1 and Flag plasmids; anti-Flag beads; immunoblot. A general note: A western blot detects proteins with antibodies after separation by electrophoresis.

The target of another assay is T2, Flag-tagged DTX4 (UniProt Q9Y2E6).
T2 sequence: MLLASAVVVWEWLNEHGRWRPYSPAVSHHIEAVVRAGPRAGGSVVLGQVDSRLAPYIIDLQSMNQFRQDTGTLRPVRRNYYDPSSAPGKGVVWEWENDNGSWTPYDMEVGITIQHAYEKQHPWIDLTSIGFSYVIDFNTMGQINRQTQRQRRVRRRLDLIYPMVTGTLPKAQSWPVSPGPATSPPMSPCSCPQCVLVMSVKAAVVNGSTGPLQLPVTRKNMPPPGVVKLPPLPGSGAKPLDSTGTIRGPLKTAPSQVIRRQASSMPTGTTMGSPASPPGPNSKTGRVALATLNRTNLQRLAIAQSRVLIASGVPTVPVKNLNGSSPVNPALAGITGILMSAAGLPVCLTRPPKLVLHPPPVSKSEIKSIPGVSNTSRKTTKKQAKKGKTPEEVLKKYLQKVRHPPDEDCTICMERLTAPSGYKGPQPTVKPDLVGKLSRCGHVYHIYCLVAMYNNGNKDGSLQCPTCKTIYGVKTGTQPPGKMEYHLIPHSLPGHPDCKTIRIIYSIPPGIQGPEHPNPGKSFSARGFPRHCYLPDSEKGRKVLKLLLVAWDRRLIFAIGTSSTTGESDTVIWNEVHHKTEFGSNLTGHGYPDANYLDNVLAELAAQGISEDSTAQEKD
Described as above.

Assay [2] addresses Flag-epitope-tagged RNF166 (FlagRNF166) (UniProt Q96A37). Described as above.
For assay [3], the target named is T3, Flag-tagged DTX1 (UniProt Q86Y01).
T3 sequence: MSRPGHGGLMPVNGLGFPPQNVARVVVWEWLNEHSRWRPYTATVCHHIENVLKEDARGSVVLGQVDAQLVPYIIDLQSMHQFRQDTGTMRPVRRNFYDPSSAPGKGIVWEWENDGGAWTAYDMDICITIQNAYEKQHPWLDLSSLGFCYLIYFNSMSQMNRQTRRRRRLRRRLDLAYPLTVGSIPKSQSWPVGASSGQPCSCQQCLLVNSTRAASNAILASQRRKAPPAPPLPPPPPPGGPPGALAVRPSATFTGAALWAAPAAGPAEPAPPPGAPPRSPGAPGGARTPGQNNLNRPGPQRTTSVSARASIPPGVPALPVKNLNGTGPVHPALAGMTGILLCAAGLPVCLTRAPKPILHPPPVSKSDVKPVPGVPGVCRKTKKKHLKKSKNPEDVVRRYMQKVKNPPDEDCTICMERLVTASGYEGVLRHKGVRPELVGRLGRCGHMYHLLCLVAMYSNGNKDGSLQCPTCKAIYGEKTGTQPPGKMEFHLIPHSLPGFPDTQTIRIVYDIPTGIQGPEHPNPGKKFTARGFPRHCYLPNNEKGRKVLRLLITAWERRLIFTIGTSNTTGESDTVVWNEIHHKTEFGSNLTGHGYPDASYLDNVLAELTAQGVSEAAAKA
The assay is described as above.

For assay [4], the target named is T1, Flag-tagged RNF125. The experiment in a line: co-IP; TNKS1/2 DKO HEK293T cells cotransfected with TNKS1 (or MycSAMPARP) and Flag plasmids; TNE lysate; anti-Flag beads 2 h at 4 °C; immunoblot.
In assay [5] the target is T4, Flag-tagged CHFR (FlagCHFR) (UniProt Q96EP1).
T4 sequence: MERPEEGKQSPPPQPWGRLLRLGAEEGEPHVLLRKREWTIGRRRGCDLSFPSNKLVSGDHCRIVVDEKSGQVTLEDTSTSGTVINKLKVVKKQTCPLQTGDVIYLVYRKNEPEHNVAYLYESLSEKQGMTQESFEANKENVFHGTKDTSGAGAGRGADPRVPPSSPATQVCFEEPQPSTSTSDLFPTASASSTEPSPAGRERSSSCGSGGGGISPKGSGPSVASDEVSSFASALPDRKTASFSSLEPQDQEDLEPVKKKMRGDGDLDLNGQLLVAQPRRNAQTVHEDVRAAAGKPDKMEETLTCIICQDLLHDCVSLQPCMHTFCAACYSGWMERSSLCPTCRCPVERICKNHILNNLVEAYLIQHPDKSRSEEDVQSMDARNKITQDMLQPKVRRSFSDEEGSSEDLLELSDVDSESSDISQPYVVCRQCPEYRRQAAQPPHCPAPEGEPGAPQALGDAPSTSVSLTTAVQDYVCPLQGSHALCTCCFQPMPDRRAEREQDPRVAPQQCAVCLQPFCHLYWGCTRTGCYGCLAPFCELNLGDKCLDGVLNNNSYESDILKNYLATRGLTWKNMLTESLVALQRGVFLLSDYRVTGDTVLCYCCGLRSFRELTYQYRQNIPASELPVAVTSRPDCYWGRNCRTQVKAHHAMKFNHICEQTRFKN
Described as above.

The target of assay [6] is T3, Flag-tagged DTX1. The description is as above.
The target of assay [7] is FlagRNF166 Di19 mutant D1* (C152R) (UniProt Q96A37). The assay is described as above.

For the substance “TNKS1 (transfected, TNKS.WT) (from UniProt O95271 1-1327) (enzyme)”, the binding result with Flag-tagged RNF125 [1] is on record as “binds weakly”; with Flag-tagged DTX4, “no binding (condition: with TNKSi (10 µM))”; in assay [2], “binds weakly”; with Flag-tagged DTX1 [3], “no binding (condition: with TNKSi (10 µM))”; in the assay with Flag-tagged RNF125 [4], “binds”; in assay [5], “binds”. Besides, the binding result in the assay with Flag-tagged DTX1 [6] was “binds”; in assay [7], “no binding”.
